Out of some 310,000 compounds screened, about 2,200 (0.71%) showed an effect of 50% or more. Effects have a minus sign here. The list shows a part of the results.
Each molecule was assayed against human ether-à-go-go-related gene (hERG) potassium channel (human, UniProt Q12809) (assay: primary screen, population patch clamp on CHO cells stably expressing hERG).
Chain of human ether-à-go-go-related gene (hERG) potassium channel (Q12809 whole entry, looked up): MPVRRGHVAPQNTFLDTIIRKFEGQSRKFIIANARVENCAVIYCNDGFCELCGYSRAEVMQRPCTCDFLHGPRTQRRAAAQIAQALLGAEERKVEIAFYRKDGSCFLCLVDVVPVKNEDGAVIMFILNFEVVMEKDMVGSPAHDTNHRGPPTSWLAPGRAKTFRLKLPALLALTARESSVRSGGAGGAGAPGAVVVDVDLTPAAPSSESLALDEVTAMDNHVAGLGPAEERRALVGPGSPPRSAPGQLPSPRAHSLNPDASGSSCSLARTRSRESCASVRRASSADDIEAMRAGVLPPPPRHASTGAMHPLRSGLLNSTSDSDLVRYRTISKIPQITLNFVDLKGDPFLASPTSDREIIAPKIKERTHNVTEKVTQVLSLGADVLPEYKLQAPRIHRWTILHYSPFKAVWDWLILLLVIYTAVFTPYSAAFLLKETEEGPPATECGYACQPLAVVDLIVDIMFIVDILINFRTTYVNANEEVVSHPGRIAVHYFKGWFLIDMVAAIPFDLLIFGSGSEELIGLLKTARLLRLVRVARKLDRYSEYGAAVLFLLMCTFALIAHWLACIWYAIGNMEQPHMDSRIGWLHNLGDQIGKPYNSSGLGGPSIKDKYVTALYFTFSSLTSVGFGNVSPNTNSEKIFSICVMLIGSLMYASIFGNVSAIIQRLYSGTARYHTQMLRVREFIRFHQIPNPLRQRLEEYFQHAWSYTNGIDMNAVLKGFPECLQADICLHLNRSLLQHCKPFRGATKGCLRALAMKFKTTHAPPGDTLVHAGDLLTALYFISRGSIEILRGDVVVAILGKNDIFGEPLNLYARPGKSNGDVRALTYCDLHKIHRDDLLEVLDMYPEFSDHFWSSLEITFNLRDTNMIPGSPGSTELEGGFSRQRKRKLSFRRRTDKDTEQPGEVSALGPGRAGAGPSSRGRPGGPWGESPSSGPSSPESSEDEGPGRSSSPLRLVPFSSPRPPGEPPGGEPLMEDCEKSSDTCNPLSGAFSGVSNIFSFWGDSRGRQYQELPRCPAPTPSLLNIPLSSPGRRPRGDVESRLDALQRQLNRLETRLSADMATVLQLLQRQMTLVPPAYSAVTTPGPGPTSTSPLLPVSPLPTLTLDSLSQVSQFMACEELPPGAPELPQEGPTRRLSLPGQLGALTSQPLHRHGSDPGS

Compound	hERG current change (%, negative = inhibition) at 1uM [%]
CCOc1ccc(NC(C)c2cc(Cl)ccc2O)cc1 (stereo not drawn)	11
CCOC(=O)CCc1c(C)c2ccc(OC3CCCCC3=O)cc2oc1=O (stereo not drawn)	17.9
COc1ccc(Cc2nnc(SCc3ccc([N+](=O)[O-])cc3)o2)cc1	-7.11
Cc1nc(-c2ccc(Cl)cc2)sc1C1(C)CC(c2cccc([N+](=O)[O-])c2)=NO1 (stereo not drawn)	8.09
Cc1ccccc1OCC(=O)Nc1ccccc1CO	14.5
CC(=O)Nc1ccc(-c2nnn(CC(=O)c3ccc(F)cc3)n2)cc1Cl	8.91
CCN(CC(=O)Nc1ccccc1OC)C(=O)CN1C(=O)NC2(CCCC2)C1=O	-17.4
O=c1ccn([C@@H]2O[C@H](CO)[C@@H](O)[C@H]2O)c(=O)[nH]1	12.5
CCCN1CCCC[C@H]1C(=O)Nc1c(C)cccc1C.Cl	-7.61
Cc1cc(C)n(C(=O)CCCCCCCC(=O)n2nc(C)cc2C)n1	5
O=C1NC(=O)N(c2ccc(Cl)cc2)C(=O)/C1=C/c1coc2ccc(O)cc2c1=O	14.2
O=C(O)CCCC(=O)NCCc1ccncc1	11.1
Cc1ccc(-n2nnnc2SCC(=O)NCCC2=CCCCC2)c(C)c1	16.2
COc1cccc(NC(=O)c2cnc[nH]2)c1	14.6
CCCCN1CN(Cc2ccccc2)CNC1=S	14.4
CC(C)OCCCNC(=O)C1CCN(S(=O)(=O)c2ccc3nc4c(c(C(=O)O)c3c2)CCCCC4)CC1	29.1
Cc1cc(C(=O)N2CCCC(N3CCN(c4cccc(Cl)c4)CC3)C2)no1 (stereo not drawn)	10.5
O=C1NC(=S)N/C1=C/c1cccnc1	9.03
CCOC(=O)C1CCN(Cc2nc(-c3ccc(OC)c(OC)c3)no2)CC1	8.51
COC(=O)CC(NS(=O)(=O)c1cccs1)c1ccccc1Cl (stereo not drawn)	21
O=C(CSc1ncn[nH]1)NC12CC3CC(CC(C3)C1)C2	0.0513
O=C(CCN1C(=O)/C(=C/c2cccc(Br)c2)SC1=S)Nc1cccnc1	9.87
CCCN(C(=O)CSc1cc(-c2ccccc2)c2ccc(OC)cc2n1)C1CCS(=O)(=O)C1 (stereo not drawn)	18

Compound	hERG current change (%, negative = inhibition) at 1uM [%]
CC(C)=C1C2CCC1C(C(=O)NCc1ccccc1)C2C(=O)O (stereo not drawn)	10.3
NNC1=[NH+][C@H]2CS(=O)(=O)C[C@H]2S1.[Br-]	18.3
CC(C)NC(=O)C1CC=CCC1C(=O)O (stereo not drawn)	9.37
Cc1ccccc1C(=O)OCC(=O)N(C)c1ccccc1	11.7
O=C(Cn1cnc2ccccc21)N/N=C/c1cccc([N+](=O)[O-])c1	3.02
CCOC(=O)Cn1nc(C)c2ccccc2c1=O	4.8
COc1ccccc1CCNC(=O)C(=O)c1cn(CC(=O)N2CCCC2)c2ccccc12	10.7
O=S(=O)(NCCc1cn2ccccc2n1)c1ccc(F)c(C(F)(F)F)c1	-8.49
Cc1ccc(CNC(=O)CCNS(=O)(=O)c2ccc(C)cc2)cc1	16.7
NNC(=O)c1csc(CS(=O)(=O)c2ccc(Cl)cc2)n1	5.43
CCOC(=O)Cn1c(=S)[nH]c2c(oc3ccc(Cl)cc32)c1=O	2.06
CCc1ccc(NC(=S)N(CCOC)C2CCN(C(C)=O)CC2)cc1	17.5
COCCNC(=O)/C(C#N)=C/c1cccc(NC(=O)c2ccccc2Cl)c1	4.09
CCOC(=O)C1=C(CS(=O)(=O)c2ccccc2)NC(=O)NC1c1ccccc1 (stereo not drawn)	12.5
COc1ccc(C(=O)N2CCC(O)(c3ccc(Cl)cc3)CC2)cc1OC	-5.68
Cc1ccc(S(=O)(=O)N2Cc3ccccc3CC2C(=O)Nc2ccc3c(c2)OCO3)cc1 (stereo not drawn)	3.79
COCCN=C1Sc2nc3cc4c(cc3cc2CN1CC1CCCO1)OCO4.Cl (stereo not drawn)	5.27
CC1(C)NC(=O)N(CC(O)CN(c2cccc([N+](=O)[O-])c2)S(=O)(=O)c2ccccc2)C1=O (stereo not drawn)	8.68
CC(OC(=O)CCc1nc2ccccc2c(=O)[nH]1)C(=O)NC1CCCC1 (stereo not drawn)	12.1
COc1ccc(CC(=O)NCCN2CCCC2)cc1.Cl	12.1
c1ccc(CCCN2CCN(c3ccccc3)CC2)cc1	-21.8
CCOc1ccc2c(c1)C(=O)c1cc(OCC(=O)O)ccc1-2	10.6

Source: PMC4336329 (PLoS ONE, 2015)
